Where “and” joins values, the source holds several entries; their conditions need not be identical. Equal values may be shown once. The campaign covered roughly 310,000 compounds. About 18,000 (5.8%) were called active. The inconclusive results got no clear call from the source; some entries with a clear call stand among them for comparison. Calls come from the whole dose curve; as a rule, active = well fitted inhibition curve with a large enough effect; inconclusive = small, poorly fitted or top-dose-only effect, or another doubt; inactive = no such curve, though single readings can be large or run the other way. No potency is given beside an inconclusive call; the fits are too rough.
experiment: Primary qHTS for delayed death inhibitors of the malarial parasite plastid, 48 hour incubation; conditions: P. falciparum luciferase growth in erythrocytes; series mostly up to 28.7 µM; activity change, negative = inhibition: at the top concentration
Outline: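 Parasite viability was followed by luminescence of a genomically integrated firefly luciferase. Cultures held 0.1% parasitemia at 2% hematocrit (final), incubated under 5% CO2 at 37 C.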
% is set by controls: 0 for no effect and ±100 for the full control effect; potency is the fitted concentration of half-maximal effect; tags give direction and shape of the fitted curve.

| Compound | activity change, negative = inhibition | Potency |
| --- | --- | --- |
| COc1cccc(C(=O)Nc2ccc3nc4n(c(=O)c3c2)CCCC4)c1 | inactive: 13.1% |  |
| OC(COCCOc1ccc(Br)cc1)CN1CCN(Cc2ccccc2)CC1 (stereo unspecified) | inactive: -14.2% |  |
| O=C(/C=C/c1ccccc1F)N1CCN(c2ccccn2)CC1 |  | inconclusive [inhibitor, single point] |
| COC(=O)c1ccc(C(=S)N2CCOCC2)cc1 | inactive: 14% |  |
| COc1ccc(N2CCN(C(=O)c3ccc(OCc4c(C)noc4C)c(OC)c3)CC2)cc1 | inactive: -2.61% |  |
| O=C(N/N=C/c1oc(O)c2ccccc12)c1ccccc1 | inactive: 46% |  |
| NC(=O)c1ccc(N=Cc2ccc([N+](=O)[O-])s2)cc1 | inactive: -14.8% |  |
| Cc1nc(C(=O)Nc2cc(Cl)ccc2Cl)nn1-c1cc(OC(C)C)c(Cl)cc1Cl |  | inconclusive [inhibitor, partial curve, poor fit] |
| Cc1cc(=O)oc(C)c1C(=O)NCc1ccccc1 |  | inconclusive [inhibitor, single point] |
| CC(=O)Oc1ccc(C(=O)NCc2ccc3c(c2)OCO3)cc1 | inactive: 11.5% |  |
| COC(=O)[C@H]1[C@H]2C[C@@H]3c4[nH]c5cc(OC)ccc5c4CCN3C[C@H]2C[C@@H](OC(=O)c2cc(OC)c(OC)c(OC)c2)[C@@H]1OC |  | active: 7.57 µM and active: 1.47 µM |
| Cc1cc(C)nc(-n2ncc3c2CC(c2ccccc2C)CC3=O)n1 (stereo unspecified) |  | inconclusive [inhibitor, full curve, poor fit] |
| Cc1nn(Cc2ccc(C(=O)NC3CCCCC3)o2)c(C)c1Br |  | inconclusive [inhibitor, single point] |
| COc1ccc(OC)c(N(C(=O)c2snc(C(N)=O)c2N)C(C(=O)NCc2ccccc2)c2ccc(O)cc2)c1 (stereo unspecified) |  | active: 10.4 µM |
| COc1cc2c(cc1OC)-c1cc3ccc(OC)c(OC)c3c[n+]1CC2 |  | active: 0.185 µM |
| COc1ccc(NC(=O)c2cc(-c3cc(Cl)ccc3O)n[nH]2)c(OC)c1 |  | inconclusive [inhibitor, single point] |
| O=C(Cc1cccc(NC(=O)C2CCN(C(=O)c3ccccc3)CC2)c1)Nc1cccc(C(=O)N2CCCC2)c1 |  | inconclusive [inhibitor, single point] |
| COc1ccc(N2CCN(c3c(S(=O)(=O)c4ccccc4)cnc4ccc(OC)cc34)CC2)cc1 |  | active: 8.28 µM |
| O=C(CSc1nnc(Cn2nnc3ccccc32)o1)N(Cc1ccc(F)cc1)c1ccccc1 |  | inconclusive [inhibitor, partial curve] |
| C/C(=N\NC(=O)c1ccc(O)cc1O)c1cccnc1 | inactive: 95.5% |  |
| O=C(Nc1ccc(S(=O)(=O)NC2CCCCC2)cc1)c1ccc(Br)o1 |  | inconclusive [inhibitor, single point] |
| Cc1ccc(S(=O)(=O)N2CCC(=O)N(CCOC(=O)Nc3ccc(C)c(C)c3)CC2)cc1 |  | inconclusive [inhibitor, single point] |
| O=c1n(Cc2ccccc2F)c2ccccc2n1Cc1ccccc1F |  | inconclusive [inhibitor, single point] |
| Cc1csc(NC(=O)NCC2CCCC(CNC(=O)Nc3nc(C)cs3)C2)n1 (stereo unspecified) |  | active: 11.7 µM |

| Compound | activity change, negative = inhibition | Potency |
| --- | --- | --- |
| CCCCCn1c(=O)[nH]c2cc(C(=O)NCCCN(C)Cc3ccccc3)ccc2c1=O |  | inconclusive [inhibitor, partial curve] |
| CCCOc1ccc(NC(=O)C2CC(=O)N(C)C(=Nc3cccc(OC)c3)S2)cc1 (stereo unspecified) |  | inconclusive [inhibitor, single point] |
| CN=C(Nc1ccc2c(c1)OCO2)SC1CC(=O)N(c2ccccc2)C1=O (stereo unspecified) |  | inconclusive [inhibitor, single point] |
| CCOC(=O)c1[nH]c2ccc(F)cc2c1NC(=O)CN1CCc2cc(OC)c(OC)cc2C1 |  | active: 11.7 µM |
| CCc1c(C(=O)NC2CCCc3ccccc32)[nH]c(C)c1C(C)=O (stereo unspecified) | inactive: -19.6% |  |
| Cc1ccccc1S(=O)(=O)c1c(C)cc(C)n(C(C)C)c1=O | inactive: -20.9% |  |
| Cc1ccc(-c2nc3cnccn3c2Nc2ccc3c(c2)OCO3)o1 |  | inconclusive [inhibitor, single point] |
| CCOC(=O)[C@H]1[C@H]2COc3cc(OC)ccc3[C@@H]2N2C(=O)c3cc(OC)c(OC)cc3NC(=O)[C@@]12C |  | inconclusive [inhibitor, single point] |
| C[C@]12CC(O)C3C(CCC4=CC(=O)CC[C@@]43C)C1CCC2c1csc(-c2ccccc2)n1 (stereo partly specified) |  | active: 5.22 µM |
| CCc1ccccc1NC(=O)CSc1nnc(Cn2cnc3ccccc32)o1 | inactive: 15.6% |  |
| CC(C)(C)NC(=O)c1cc([N+](=O)[O-])ccc1N1CCCCC1 |  | inconclusive [inhibitor, partial curve, poor fit] |
| COc1cc(-c2nnc(SC/C=C/c3ccccc3)n2N)cc(OC)c1OC |  | inconclusive [inhibitor, partial curve, poor fit] |
| c1ccc(Oc2nc(NCc3ccco3)nc(NCc3ccco3)n2)cc1 |  | inconclusive [inhibitor, partial curve, poor fit] |
| COc1ccc(NC(=O)C2CCN(Cc3cnn(-c4ccccc4)c3-n3cccc3)CC2)cc1OC |  | inconclusive [inhibitor, single point] |
| CN(C)c1cccc(C(=O)NNC(=O)CSc2ccccc2)c1 | inactive: 5.96% |  |
| O=C(Nc1ccccc1N1CCCC1)c1ccc(Cl)cc1Cl | inactive: 0.0036% |  |
| COc1ccc(OCCNc2cc(Cl)ccc2[N+](=O)[O-])cc1 | inactive: -8.7% |  |
| CC(=O)Nc1nc2ccccc2n1Cc1ccccc1C |  | active: 7.38 µM |
| Cc1nc2cc(NC(=O)c3ccc(N4C(=O)CCC4=O)cc3)ccc2s1 |  | inconclusive [inhibitor, full curve, poor fit] |
| COc1ccccc1N1CCN(/N=C/c2cccc(Cl)c2)CC1 | inactive: 110% |  |
| COCCCNC(=O)c1c[nH]c2ccc(S(=O)(=O)N3CCc4ccccc43)cc2c1=O |  | active: 11.7 µM |
| Cc1ccc(S(=O)(=O)N2CCN(C(=O)CCCOc3cccc(C)c3)CC2)cc1 |  | inconclusive [inhibitor, single point] |
| COCCn1c(N2CCCC2)nc2c1c(=O)[nH]c(=O)n2C |  | active: 13.1 µM |
| Cc1ccc(C(=O)Nc2cc(S(=O)(=O)N3CCOCC3)ccc2N2CCCC2)cc1 |  | inconclusive [inhibitor, single point] |

| Compound | activity change, negative = inhibition | Potency |
| --- | --- | --- |
| Cc1cc(C(=O)Nc2ccncc2)c2ccccc2n1 |  | inconclusive [inhibitor, single point] |
| COc1ccc(/C=C/C(=O)c2ccc([N+](=O)[O-])o2)cc1 |  | inconclusive [inhibitor, single point] |
| CSCC[C@H](NC(=O)C1CCN(S(=O)(=O)c2ccc(C)cc2)CC1)C(=O)NCc1ccco1 |  | inconclusive [inhibitor, single point] |
| CCCc1nc2ccccc2c(C(=O)OCC(=O)Nc2c(C)n(C)n(-c3ccccc3)c2=O)c1CC |  | inconclusive [inhibitor, partial curve] |
| CCCCn1c(SCC(=O)NCc2ccco2)nnc1-c1ccoc1C | inactive: -1.57% |  |
| O=C(Nc1ccccc1OC(F)F)C1CCCN1C(=O)c1cccs1 (stereo unspecified) |  | inconclusive [inhibitor, partial curve, poor fit] |
| COC(=O)c1ccccc1OC(=O)c1cc[n+]([O-])cc1 | inactive: 13.1% |  |
| COc1ccc(-c2nnn(CC(=O)N(C3CCCCC3)C(C)C(=O)NC3CCCC3)n2)cc1OC (stereo unspecified) |  | inconclusive [inhibitor, partial curve, poor fit] |
| Cc1ccc(NC(=O)ON=C2CCCC2)cc1 |  | active: 4.65 µM |
| N=C(N)SCC1=CCS(=O)(=O)C1 |  | inconclusive [inhibitor, single point] |
| COc1cc(OC)c2c(C)c(Cl)c(=O)oc2c1 | inactive: 31.7% |  |
| Cc1nc(SCC(=O)N2CCN(C(=O)c3ccco3)CC2)c2c(C)c(C)sc2n1 |  | inconclusive [inhibitor, partial curve, poor fit] |
| COC(=O)CCCCC1SCC(NC(=O)c2ccccc2)C1=O (stereo unspecified) | inactive: -1.51% |  |
| O=c1cc(NS(=O)(=O)c2ccccc2)nc(SCc2ccccc2Cl)[nH]1 |  | inconclusive [inhibitor, single point] |
| CCOC1=NN(c2ncc(C(F)(F)F)cc2Cl)C(=O)C1 | inactive: 116% |  |
| O=C(C(Cl)c1ccccc1)N1CCOCC1 (stereo unspecified) |  | inconclusive [inhibitor, full curve, poor fit] |
| COCc1cc(C)nc(N2CCN(c3ccccc3)CC2)c1C#N |  | inconclusive [inhibitor, single point] |
| CN1CCN(C(=O)C(=O)c2cn(CC(=O)N3CCCC3)c3ccccc23)CC1 | inactive: -0.113% |  |
| CC(OC(=O)CNC(=O)c1sc2ccccc2c1Cl)c1ccccc1 (stereo unspecified) | inactive: -11.5% |  |
| COc1cc2[nH]c(C(=O)N3CCN(c4ccccc4F)CC3)cc2c(OC)c1OC |  | inconclusive [inhibitor, partial curve, poor fit] |
| COc1ccc(-c2nnc(SCC(=O)Nc3cc(S(=O)(=O)N4CCCCC4)ccc3Cl)n2N)cc1 |  | inconclusive [inhibitor, partial curve, poor fit] |
| CC(O)(CS(=O)(=O)c1cccc(C(F)(F)F)c1)C(=O)Nc1ccc(C(F)(F)F)cc1 (stereo unspecified) |  | inconclusive [inhibitor, partial curve, poor fit] |
| Cc1c(C)n2c(SCC(=O)N3CCOCC3)nnc2[nH]c1=O |  | inconclusive [inhibitor, single point] |
